Experimental data reported in publication PMC7819943, “Rice protein-binding microarrays: a tool to detect cis-acting elements near promoter regions in rice”.
The other results are listed elsewhere or left out.

biological target: T1, OsWOX13 (Oryza sativa, UniProt Q5QMM3 1-267); assay: protein-binding microarray (RPBM); PBS, 2% BSA, 51.3 ng/ul salmon testes DNA, 50 uM zinc acetate, 200 nM TF, 25 C, 1 h; high values mean tight binding; settings: protein: recombinant; tags: N-terminal polyhistidine and DsRed monomer fusion (pET32a); label: CyDye5-dUTP incorporated in the synthesized complementary strand; 3' TTTTT single-stranded linker to array surface; dsDNA, one strand shown
T1 sequence: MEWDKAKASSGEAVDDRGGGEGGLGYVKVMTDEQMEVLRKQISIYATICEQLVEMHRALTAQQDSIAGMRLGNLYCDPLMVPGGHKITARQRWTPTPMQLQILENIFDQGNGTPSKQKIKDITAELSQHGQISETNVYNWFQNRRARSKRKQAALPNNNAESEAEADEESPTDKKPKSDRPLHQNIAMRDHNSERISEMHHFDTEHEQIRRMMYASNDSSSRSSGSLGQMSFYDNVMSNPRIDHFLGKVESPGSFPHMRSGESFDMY
Method in brief: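 The binding signal is fluorescence intensity per feature, in arbitrary units, read on an Axon 4000B scanner. Polyhistidine- and DsRed-tagged transcription factors (N-terminal fusions) from E. coli BL21-CodonPlus were purified on Ni–NTA and applied at 200 nM for 1 h at 25 °C to a double-stranded, BSA-blocked custom Agilent array in buffer with 50 µM zinc acetate.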

Going from “ATCAATTGAGTAACTATTTGGTGAACTCCTTAAACTTTTCCGGAGTCACCTAGTGCAG” to “GACGGGAGACCCAATCATAAATTGGAGGCGCCGGCCATCTCGGAGTCACCTAGTGCAG”, the binding signal rises from 3210 fluorescence intensity (a.u.) to 5030 fluorescence intensity (a.u.).

First: TACTTACGGTAATTATTACTCCCTCCATCTACTTTTAATACGGAGTCACCTAGTGCAG
Second: AACTAATACGTAATTAATCACATTCTAATGCATTGCTCCGCGGAGTCACCTAGTGCAG
The binding signal of the first is lower: 4010 fluorescence intensity (a.u.) for the first, 9530 fluorescence intensity (a.u.) for the second.

First: CCAATCAACTTCTTTGATCATCCATGCATTCGTTACACTCCGGAGTCACCTAGTGCAG
Second: AAATTTACGTAATTATAATTTATTTTGTTATGAGTTGTTTCGGAGTCACCTAGTGCAG
The binding signal of the first is lower: 4140 fluorescence intensity (a.u.) for the first, 22400 fluorescence intensity (a.u.) for the second.

First: CTAATCGTATTGTAATCAATCATCAAAATTATTAGGGGCCCGGAGTCACCTAGTGCAG
Second: TACAACACCAAATTAATTTTACTAAATTTAACATTGAATACGGAGTCACCTAGTGCAG
The binding signal of the first is higher: 24600 fluorescence intensity (a.u.) for the first, 12800 fluorescence intensity (a.u.) for the second.

First: CACTTGACAGGTTCAGATGGCCTTCCTCCTACCGTCTGCCCGGAGTCACCTAGTGCAG
Second: AGGAAATTGACAGGTGTGGAAATTGGGTCTTCCACAAAAGCGGAGTCACCTAGTGCAG
The binding signal of the first is higher: 42200 fluorescence intensity (a.u.) for the first, 40600 fluorescence intensity (a.u.) for the second.

Going from “TTGATTTATAAACTTTAGGTTTCTAAACTTTGGATGTGTACGGAGTCACCTAGTGCAG” to “TCTCCGCAAAATAATTATATTGAAACTTGTAGTAGCAAGACGGAGTCACCTAGTGCAG”, the binding signal falls from 13800 fluorescence intensity (a.u.) to 3610 fluorescence intensity (a.u.).

Going from “TAGAATAATTGAGGTCAGTCGTCCCTGGCCCCATATACTGCGGAGTCACCTAGTGCAG” to “GTAAATTATGTGAAAGTCTCCGAGCACCAGCCATTTTGAACGGAGTCACCTAGTGCAG”, the binding signal falls from 20500 fluorescence intensity (a.u.) to 3880 fluorescence intensity (a.u.).

First: CGTTACATCGTTCTAATTTCAATCAAACTTCCAATTTTAACGGAGTCACCTAGTGCAG
Second: CTCGGTGAGATAGATGGATGATGAGCTCAAATTTGTTGGGCGGAGTCACCTAGTGCAG
The binding signal of the first is lower: 6080 fluorescence intensity (a.u.) for the first, 6900 fluorescence intensity (a.u.) for the second.

Compared with “AAAATTGATATATGTAAATATAATACAATGTAATTATTTGCGGAGTCACCTAGTGCAG”, “TCTTGATGATGTGGAGTTTATGGAAACTATGTCTAGTGTTCGGAGTCACCTAGTGCAG” is lower in binding signal: 17800 fluorescence intensity (a.u.) for the first, 5540 fluorescence intensity (a.u.) for the second.

Going from “TTGGTTAATTAAGGTGAAATTCACTTTGTTAAATTCGCTTCGGAGTCACCTAGTGCAG” to “GGCAAATCATCAAAGTTATTTGAGAAGATGGCATTTAGGACGGAGTCACCTAGTGCAG”, the binding signal falls from 12700 fluorescence intensity (a.u.) to 4070 fluorescence intensity (a.u.).

Compared with “TTTATACTAAATCTTTAATTAAGACGAATGATCAAACGTTCGGAGTCACCTAGTGCAG”, “AGATTGACGCCGACAAGATTGATTAAGCAAGGTAGGGAAACGGAGTCACCTAGTGCAG” is higher in binding signal: 3610 fluorescence intensity (a.u.) for the first, 21400 fluorescence intensity (a.u.) for the second.

Going from “AGCCAGCATTTATAATTTGTAATTCATATCCAAACGACTGCGGAGTCACCTAGTGCAG” to “ATGTAAATTGGTCAGACCCCTTTCTCTCACGTTGACCCTTCGGAGTCACCTAGTGCAG”, the binding signal rises from 3650 fluorescence intensity (a.u.) to 27500 fluorescence intensity (a.u.).

Going from “AATTTCAATTATTCTATGACGGTTCAGATCATGCCCTGATCGGAGTCACCTAGTGCAG” to “CCCTCAATTATTATCATGTTCGATTTTCAAATCTCAACGACGGAGTCACCTAGTGCAG”, the binding signal rises from 3230 fluorescence intensity (a.u.) to 15800 fluorescence intensity (a.u.).

Going from “ATGATGATCATGTTTGATTTTAAAATCTCAATGGCAATAACGGAGTCACCTAGTGCAG” to “ATTTTAAATGTGTCCTGATTTCTTTTCCATGTGATCCAGTCGGAGTCACCTAGTGCAG”, the binding signal falls from 16900 fluorescence intensity (a.u.) to 6340 fluorescence intensity (a.u.).

First: CTATCAATTTATTATAGTCATCTGGTTGATCTCATAAACACGGAGTCACCTAGTGCAG
Second: CAGACTAATTTTCAGTGGCATATAAGGGATTCTCTCTTGTCGGAGTCACCTAGTGCAG
The binding signal of the first is higher: 20800 fluorescence intensity (a.u.) for the first, 6060 fluorescence intensity (a.u.) for the second.

Going from “AACAAGTAACCGATTGATTAATCAGAACAGGTGCTGATTACGGAGTCACCTAGTGCAG” to “CCACCAATCATAGCTAACGACGATGGAATTAGAATATGTTCGGAGTCACCTAGTGCAG”, the binding signal rises from 15100 fluorescence intensity (a.u.) to 17700 fluorescence intensity (a.u.).

First: CATTACATCCAATCCAAGCGTGATGACATATCATCATCCTCGGAGTCACCTAGTGCAG
Second: CGGGATGATGATGAGGAGCTGTTTGAGGGGAACTGGGTGGCGGAGTCACCTAGTGCAG
The binding signal of the first is lower: 3490 fluorescence intensity (a.u.) for the first, 6080 fluorescence intensity (a.u.) for the second.

Compared with “CTAAATTTCATATATTCTTCGTAGCTCATTTTCTTTGACGCGGAGTCACCTAGTGCAG”, “AAATATTTAATTAATTCTTCTGTCCTCGACACCTCTAAAACGGAGTCACCTAGTGCAG” is higher in binding signal: 6400 fluorescence intensity (a.u.) for the first, 6730 fluorescence intensity (a.u.) for the second.

Going from “TGTAGTAGTATTAAATTAATTTAGTTAATCAGGTAGTGGGCGGAGTCACCTAGTGCAG” to “ACTTTACCAAATTTCGGTCTCTTCATTTAGCATTATCAAACGGAGTCACCTAGTGCAG”, the binding signal falls from 10600 fluorescence intensity (a.u.) to 3410 fluorescence intensity (a.u.).

First: GCATCAATTTAAAACTCGTAAAGTATTATTATTGATAAAGCGGAGTCACCTAGTGCAG
Second: TTGAAACTACAAATCTATCGAAACATTAATAGATAGTCGCCGGAGTCACCTAGTGCAG
The binding signal of the first is higher: 4580 fluorescence intensity (a.u.) for the first, 3770 fluorescence intensity (a.u.) for the second.

Going from “TATATATATATATATATATATATATATAACACACACCGTGCGGAGTCACCTAGTGCAG” to “ATGACGATTGAGAGAGATGATGTAACTATTTATACTCATTCGGAGTCACCTAGTGCAG”, the binding signal falls from 33500 fluorescence intensity (a.u.) to 10800 fluorescence intensity (a.u.).
